In all, about 76,000 compounds went through this assay and about 1,900 (2.5%) were called active. This list was built around the results that the source calls inconclusive (neither active nor inactive); the mix of calls is not that of the screen. Calls follow the shape of the dose curve; as a rule, active = well fitted inhibition curve with a large enough effect; inconclusive = small, poorly fitted or top-dose-only effect; inactive = flat fitted curve, though single readings scatter. Where the call is inconclusive, the potency comes from a doubtful curve fit.
The compounds below were run against Luciferin 4-monooxygenase (Photinus pyralis) (UniProt P08659) (assay: Firefly luciferase inhibition profiling of diverse chemical library using quantitative high-throughput screening). Settings: purified P. pyralis luciferase, luminescence, biochemical; activity change, negative = inhibition: at 115 µM (top of the series) unless noted.
Chain of UniProt P08659 (P08659 whole entry, looked up): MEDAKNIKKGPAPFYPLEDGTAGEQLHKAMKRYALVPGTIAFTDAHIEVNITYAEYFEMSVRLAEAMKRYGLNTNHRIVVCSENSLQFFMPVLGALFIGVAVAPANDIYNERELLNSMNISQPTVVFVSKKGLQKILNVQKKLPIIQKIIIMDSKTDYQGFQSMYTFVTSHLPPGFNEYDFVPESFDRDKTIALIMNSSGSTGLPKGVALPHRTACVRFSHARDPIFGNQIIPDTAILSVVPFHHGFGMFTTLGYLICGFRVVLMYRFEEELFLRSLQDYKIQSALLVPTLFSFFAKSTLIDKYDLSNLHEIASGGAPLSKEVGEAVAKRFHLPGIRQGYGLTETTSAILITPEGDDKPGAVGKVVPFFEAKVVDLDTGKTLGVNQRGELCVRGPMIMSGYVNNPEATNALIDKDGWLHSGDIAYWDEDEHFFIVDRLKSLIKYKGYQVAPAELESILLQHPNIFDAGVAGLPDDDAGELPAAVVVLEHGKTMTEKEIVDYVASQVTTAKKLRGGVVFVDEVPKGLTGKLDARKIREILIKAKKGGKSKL
Description: Firefly (Photinus pyralis) luciferase is one of the most commonly used transcriptional reporters for a number of reasons. It is considered one of the more dynamically responsive reporters - that is, responsive to changes in reporter transcription - as it requires no post-translational modifications and is enzymatically active directly after protein synthesis (Wood, 1998). Additionally, the half-life of the luciferase protein is short relative to other reporter-gene products (Wood, 1995). Whereas reporters with long half-lives potentially allow for increased signal due to accumulation of reporter-gene product, once accumulated in the cell, dynamic changes in reporter-gene expression may be difficult to detect(Fan and Wood, 2007; Almond et al., 2004). It has been shown that wild-type P. pyralis luciferase has a half-life of approximately four hours in mammalian cells (Thompson et al., 1991). Firefly luciferase reporter-gene assays are also generally considered one of the most sensitive assay types (Wood, 1995; Wood, 1998). Although light produced in a bioluminescence reaction is of lower intensity than that produced during fluorescence emission, this is offset by little to no background light inherent to luminescent assays. Thus the luciferase reporter can be expressed at much lower levels than fluorescent proteins while still providing robust signal. However, it was initially observed, in 1991, by Thompson et al., that compounds that resemble the substrates of firefly luciferase (FLuc) can act as competitive inhibitors of the enzyme, and that these compounds, upon interaction with luciferase in the cell, can actually stabilize the protein and increase its half-life. Accumulated intracellular FLuc protein can be measured as an increase in luminescence signal, upon addition of detection reagents (which contain high concentrations of FLuc substrates) commonly used in high-throughput screening. In cell-based reporter gene assays that use FLuc as the reporter gene to quantitate the potential influence of a given compound against the target biology, this apparent increase in luminescence can mistakenly be interpreted as identification of a compound that is active against the target of interest. FLuc inhibitory compounds that stabilize the FLuc protein will give an identical read-out, making it difficult to distinguish compounds that are active against the target from those active against FLuc. In summary, the results generated here constitutes a valuable resource for the scientific community and provides insight on identifying compounds with inhibitory activity for the commonly-used reporter, firefly luciferase. References: -Almond, B., Zdanovsky, A., Zdanovskaia, M., Ma, D., Stecha, P., Paguio, A., Garvin, D., and Wood, K. (2004). Introducing the Rapid Response Reporter Vectors. Promega Notes 87, 18-22. -Fan, F., and Wood, K.V. (2007). Bioluminescent assays for high-throughput screening. Assay Drug Dev Technol 5, 127-136. -Thompson, J.F., Hayes, L.S., and Lloyd, D.B. (1991). Modulation of firefly luciferase stability and impact on studies of gene regulation. Gene 103, 171-177. -Wood, K.V. (1998). The chemistry of bioluminescent reporter assays. Promega Notes 65, 14-20. -Wood, K.V. (1995). Marker proteins for gene expression. Curr Opin Biotechnol 6, 50-58.
Reagents: 50mM Tris acetate, pH 7.5; 10mM Mg acetate; 10uM D-luciferin (Sigma #L9504); 10uM ATP; 0.01% Tween-20; 0.05% BSA; 10nM P. pyralis luciferase (Sigma #L9506) Control compounds used were two known firefly luciferase inhibitors (compounds (2) and (5) in Auld et al., 2010), and DMSO. Assay Summary: Three microliters containing firefly luciferase substrates in buffer (final concentrations: 50mM Tris acetate, pH 7.5, 10mM Mg acetate, 0.01% Tween-20, 0.05% BSA, 10uM D-luciferin, and 10uM ATP) are dispensed into each well of a Greiner white, solid-bottom 1536-well format plate using a flying reagent dispenser (FRD). […]
With O=C(Cc1ccsc1)N1CC(Oc2ccccc2-c2nc(-c3ccccc3)no2)C1 the Potency was inconclusive: 31.6 µM [inhibitor, full curve]. With O=C(c1cc(F)ccc1F)N1CCCC2(C1)NC(=O)N(Cc1ccc(Cl)cc1)C2=O (configuration not stated) the “activity change, negative = inhibition” value was inactive: 6.66%. For Cc1ccc(S(=O)(=O)N[C@H]2C[C@@H](c3nc(-c4ccccc4)no3)N(C)C2)cc1, the Potency was inconclusive: 50.1 µM [inhibitor, partial curve]. With O=C(c1ccc2[nH]ccc2c1)N1CCC(Cn2cc(C3CCCC3)nn2)CC1 the Potency was inconclusive: 50.1 µM [inhibitor, partial curve]. CNC(=O)[C@@H]1CN(C(=O)c2cccc(OC(F)(F)F)c2)C[C@H]1CO was tested, and the “activity change, negative = inhibition” value was inactive: -1.18%. In the case of CC(C)(C)c1ccnc(N[C@H]2CO[C@H]3[C@@H]2OC[C@@H]3NC(=O)c2cccs2)n1, the Potency is reported as inconclusive: 70.8 µM [inhibitor, partial curve]. For Cc1cc(C)cc(NC(=O)c2ccc3c(c2)N(C)C2CCCCN2C3=O)c1 (configuration not stated), the Potency was inconclusive: 17.8 µM [inhibitor, full curve]. In the case of CN(C)c1ccc(CN[C@H]2C[C@H]3C(=O)NC[C@@H](CCC(=O)Nc4ccccc4)N3C2)cc1, the Potency is reported as inconclusive: 89.1 µM [inhibitor, single point]. COc1ccc(NC(=O)N2CCCC(Cc3noc(-c4ccccc4)n3)C2)cc1 (configuration not stated) was tested, and the Potency was inconclusive: 50.1 µM [inhibitor, partial curve]. COc1ccc(-c2noc([C@@H]3C[C@@H](O)CN3Cc3ccc(F)cc3)n2)cc1 was tested, and the Potency was active: 44.7 µM. With CCC(=O)N1CCCC(c2nc(-c3ccc4nc[nH]c4c3)no2)C1 (configuration not stated) the Potency was inconclusive: 44.7 µM [inhibitor, partial curve, poor fit]. In the case of O=C1NCCN2CC3(CCN(C(=O)NCCc4ccccc4)CC3)CC12 (configuration not stated), the Potency is reported as inconclusive: 44.7 µM [inhibitor, partial curve]. In the case of O=C(CCCc1ccccc1)N1CCN(C2CCN(CCc3ccccc3)C2=O)CC1 (configuration not stated), the Potency is reported as inconclusive: 31.6 µM [inhibitor, partial curve]. With COc1ccc2nc([C@H]3CCN(C(=O)c4ccccc4)C3)[nH]c2c1 the “activity change, negative = inhibition” value was inactive: -5.79% [at 172 µM]. For CN(Cc1ccc(-c2ccccc2)cc1)S(C)(=O)=O, the Potency was active: 14.1 µM. In the case of CCCNc1cc(N2CCC(CCC(=O)N(C)CCc3ccncc3)CC2)ncn1, the Potency is reported as inconclusive: 56.2 µM [inhibitor, partial curve]. In the case of O=C(OCc1ccccc1)N1CCOCC12CCN(Cc1ncccn1)CC2, the “activity change, negative = inhibition” value is reported as inactive: -1.89% [at 172 µM]. In the case of c1cc(OC2CCCCC2)ncc1-c1noc([C@@H]2CCCN2C2CCOCC2)n1, the Potency is reported as inconclusive: 79.4 µM [inhibitor, partial curve]. With O=C(NC1CCCCC1)[C@@H]1Cc2nc[nH]c2CN1Cc1ccc(Cl)cc1 the “activity change, negative = inhibition” value was inactive: -9.77% [at 172 µM]. O=C(Cc1ccccc1F)Nc1cnc(-c2cccnc2)nc1 was tested, and the Potency was inconclusive: 35.5 µM [inhibitor, partial curve]. In the case of CS(=O)(=O)N(C1CC1)C1CCOC2(CCN(C(=O)CCCc3ccccc3)CC2)C1 (configuration not stated), the Potency is reported as inconclusive: 50.1 µM [inhibitor, partial curve, poor fit]. In the case of O=C(N[C@@H]1CN(C(=O)Nc2ccccc2)CCC[C@H]1O)c1ccc(O)cc1, the Potency is reported as inconclusive: 112 µM [inhibitor, single point]. CCOC(=O)C1=C(C)N=C2SC=C(CC(=O)Nc3ccc(OC)cc3)N2C1c1ccccc1F (configuration not stated) was tested, and the “activity change, negative = inhibition” value was inactive: -10.1%. In the case of O=C(NCCC1=CCCCC1)C1CCN(C(=O)c2ncn3c2COC(c2ccc(Cl)cc2)C3)CC1 (configuration not stated), the Potency is reported as inconclusive: 39.8 µM [inhibitor, partial curve]. Clc1ccccc1-c1noc(-c2nc(-c3ccncc3)no2)n1 was tested, and the Potency was inconclusive: 35.5 µM [inhibitor, partial curve]. With CCOCc1nc(C2CCCN(C(=O)NCc3ccc(F)cc3)C2)no1 (configuration not stated) the “activity change, negative = inhibition” value was inactive: 1.62%. With O=C(Nc1ccc(-c2cccc(F)c2)cc1)C1CCCN1Cc1cnc[nH]1 (configuration not stated) the Potency was inconclusive: 44.7 µM [inhibitor, partial curve]. For COCc1ccc2c(c1)c(OC(C)(C)C(=O)NC1CCOCC1)nn2Cc1ccccc1, the “activity change, negative = inhibition” value was inactive: -0.459% [at 172 µM]. For O=C(NCC1Cn2cccc2CN1Cc1ccccc1)c1ccoc1 (configuration not stated), the Potency was inconclusive: 44.7 µM [inhibitor, partial curve]. With COC(=O)[C@@H]1Cc2ncn(C(C)C)c2CN1C(=O)c1ccc(C(F)(F)F)cc1 the “activity change, negative = inhibition” value was inactive: -2.71% [at 172 µM]. For Fc1ccc(C2Cn3cnc(-c4nc(-c5ccsc5)no4)c3CO2)cc1 (configuration not stated), the Potency was inconclusive: 20 µM [inhibitor, full curve, poor fit]. With Cc1ccc(C(=O)N2CCCN(S(C)(=O)=O)c3ccccc32)cc1C the Potency was inconclusive: 44.7 µM [inhibitor, partial curve]. CCc1cccc(NC(=O)CN2C(=O)NC(c3ccccc3Cl)C3=C2COC3=O)c1 (configuration not stated) was tested, and the Potency was inconclusive: 20 µM [inhibitor, full curve]. For Cc1ccc(C(=O)NC2CCCN(c3cc(-c4ccccc4)[nH]n3)C2)cc1 (configuration not stated), the Potency was inconclusive: 25.1 µM [inhibitor, full curve]. For O=S(=O)(c1ccc(F)cc1)N1CCCC(Cc2noc(-c3ccccc3)n2)C1 (configuration not stated), the Potency was inconclusive: 17.8 µM [inhibitor, full curve]. With Cc1cc(C(=O)NCc2ccnc3[nH]ccc23)ccc1Cl the Potency was inconclusive: 44.7 µM [inhibitor, partial curve]. For O=C(c1ccco1)N1CCN(c2ncncc2-c2nc(-c3ccccc3)no2)CC1, the Potency was inconclusive: 44.7 µM [inhibitor, partial curve]. For O=C(CCc1conc1-c1cccc(F)c1)NCc1cccc(Cl)c1, the Potency was inconclusive: 28.2 µM [inhibitor, partial curve, poor fit]. In the case of COC(=O)c1ccc2nc(C[C@@H]3C[C@@H](C(C)C)[C@H](CNC(=O)CCCC(=O)O)C=C3C)[nH]c2c1, the “activity change, negative = inhibition” value is reported as inactive: -4.7%. For COc1ccc(-c2cc(N3CCCC(NC(=O)c4cc(OC)c(OC)c(OC)c4)C3)n[nH]2)cc1 (configuration not stated), the Potency was active: 6.31 µM. CC1(CCCCc2ccccc2)COc2ccc(C(=O)N3CCOCC3)cc2N1 (configuration not stated) was tested, and the “activity change, negative = inhibition” value was inactive: -3.05% [at 172 µM]. With Cc1cn2nc(C(=O)N3CCCC3)cc2c(=O)[nH]1 the “activity change, negative = inhibition” value was inactive: -19.1%.

From PubChem BioAssay AID1347043 (National Center for Advancing Translational Sciences (NCATS), 2019)
% is scaled to controls: 0 for no effect and ±100 for the full control effect; tags tell the direction and shape of the fitted curve.
Also: nearly all actives have a fitted effect of over 65% in size.
